Data: PubChem BioAssay AID1508642 (National Center for Advancing Translational Sciences (NCATS), 2021)
Hit rate of the full screen: of about 43,000 compounds, about 200 (0.47%) were called active. Roughly 12% stayed inconclusive and do not appear here. The call rests on the fitted dose curve; in most records, active means well fitted cell-killing curve with a large enough effect; inconclusive means small, poorly fitted or top-dose-only effect, or effect the other way; inactive means flat fitted curve, though single readings scatter. The list shows a part of the results.

test: Cell viability qHTS assay in S16 Pmp22-F2sN cells; details: S16 Pmp22-F2sN Schwann cells (luciferase reporters placed in the Pmp22 gene) viability, CellTiter-Glo, 24 h; series mostly up to 57.5 µM; activity change, negative = cytotoxicity: at the top concentration; further: nearly all actives have a fitted effect of over 65% in size
How it was run: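 S16 Schwann cells carrying the Pmp22-F2sN reporter, seeded in 1536-well format, were exposed to library compounds for 24 h at 37C. Viability was read as CellTiter-Glo luminescence after 15 min at room temperature.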
On the % scale 0 is the no-effect control and ±100 the full control effect.

Compound	activity change, negative = cytotoxicity
Cc1ccc(NC(=O)c2cc(S(=O)(=O)N3CCC(C)CC3)cn2C)cc1Cl	inactive: 0.525%
COCCN1Cc2cccc(C(=O)Nc3ccc(C(=O)OC)cc3)c2C1=O	inactive: 5.03%
Cc1ccccc1NC(=O)c1cc2sccc2n1Cc1ccc(F)cc1	inactive: 0.811%
CN(c1ccccc1)S(=O)(=O)c1nnc(NC(=O)c2ccco2)s1	inactive: 2.09%
CCCCCn1c(=O)[nH]c2cc(C(=O)N3CCN(c4cccc(Cl)c4)CC3)ccc2c1=O	inactive: 1.04%
COc1ccc(OC)c(CNC(=O)c2cc(S(=O)(=O)N3CCC(C)CC3)cn2C)c1	inactive: 2.72%
CCOc1ccccc1NC(=O)C(=O)c1cc(C)n(-c2cccc(C)c2C)c1C	inactive: -2.18%
COc1ccccc1NC(=O)C1=C(C)Nc2nc(SCc3ccccc3F)nn2C1c1ccncc1 (stereo not drawn)	inactive: 9.55%
CC(C)Cc1nn2c(=O)cc(COC(=O)c3ccccc3NC(=O)c3cccs3)nc2s1	inactive: 11.7%
COc1cccc(NC(=O)CCSc2nc(-c3ccco3)cc(C(F)(F)F)n2)c1	inactive: -25%
CCOc1ccc(CCNC(=O)c2cc3cc4cc(OC)ccc4nc3s2)cc1OCC	inactive: -2.84%
CCc1nn2c(=O)cc(COC(=O)c3cccc(NC(=O)COc4ccccc4)c3)nc2s1	inactive: -4.9%
COc1ccc(-c2noc(N3CCN(c4ccc(Cl)cc4)CC3)n2)cc1OC	inactive: 2.5%
COc1ccc(CNC(=O)C2CCN(S(=O)(=O)c3ccc4nc5c(c(C(=O)O)c4c3)CCCC5)CC2)cc1	inactive: 5.2%
CCc1cccc(C)c1NC(=O)C1CCN(c2nnc(C)c3c(C)n(-c4ccccc4)nc23)CC1	inactive: -0.0975%
Cc1cccc(NC(=O)C2CCN(S(=O)(=O)c3ccc4[nH]c5c(c4c3)CCCCC5)CC2)c1	inactive: -15.1%
Cc1cc(C)cc(NC(=O)Cn2cc(C(=O)c3ccncc3)c(=O)c3cc(C)c(C)cc32)c1	inactive: -1.39%
Nc1nnc(SCC(=O)Nc2cccc(F)c2)s1	inactive: 0.496%
Cc1ccccc1CN1C(=O)c2ccccc2Sc2ccc(C(=O)O)cc21	inactive: 4.79%
Cc1ccc(CS(=O)Cc2ccc(C(=O)NCc3ccccc3Cl)o2)cc1 (stereo not drawn)	inactive: 0.441%
Cc1ccc(NC(=O)C2CCCN(c3cnccn3)C2)cc1Cl (stereo not drawn)	inactive: 11.4%

Compound	activity change, negative = cytotoxicity
CC(C)c1ccc(NC(=O)C2CCN(S(=O)(=O)c3ccc(Br)s3)CC2)cc1	inactive: 8.9%
Cc1ccc(S(=O)(=O)c2nnn3c2nc(NCc2ccccc2)c2sccc23)cc1	inactive: -1.76%
Clc1ccc(Nc2nc(-c3ccccc3)c3ccccc3n2)c(Cl)c1	inactive: -0.181%
COc1ccccc1C(=O)Nc1cccc(OCc2cc(=O)n3c(C)csc3n2)c1	inactive: 0.867%
O=S(=O)(c1cc(Br)c(Br)s1)N1CCN(c2ccccc2)CC1	inactive: -0.197%
COc1ccc(-c2nc3sc(CCNC(=O)Cc4ccc(Cl)cc4)c(C)n3n2)cc1	inactive: -22.5%
CCOc1ccc(CCNC(=O)CSc2nc3ccccc3nc2Cc2ccc(C)cc2)cc1OCC	inactive: 12.4%
COc1c(C)cccc1C(=O)Nc1ccc(Cl)c(-c2nc3cc(C)ccc3o2)c1	inactive: -0.912%
COc1ccc(C(=O)Nc2ccc(N3CCN(c4ccccc4)CC3)c(C(=O)O)c2)cc1	inactive: 3.67%
CCOc1ccc(CCNC(=O)C(CC(C)C)N2Cc3ccccc3C2=O)cc1OCC (stereo not drawn)	inactive: -0.588%
CCN(CC)c1ccc(C(=O)NCc2ccc3c(c2)CCN3C(=O)c2cccc(C)c2)cc1	inactive: 7.65%
CCOc1ccc(S(=O)(=O)NCCc2csc3nc(-c4ccc(OC)c(OC)c4)nn23)cc1	inactive: 5.81%
Cc1nc(SCc2cc(=O)c3cccc(F)c3[nH]2)n[nH]1	inactive: -0.0826%
CCc1ccc(NC(=O)CC2C(=O)NCCN2C(=O)c2ccccc2OC)cc1 (stereo not drawn)	inactive: 10.4%
CCOCCc1nn2c(=O)cc(COC(=O)COc3ccc(C)c(C)c3)nc2s1	inactive: -1.82%
COc1cn(CC(=O)Nc2c(C)cc(C)cc2C)c(CN2CCCCC2)cc1=O	inactive: -3.73%
COc1ccc(NC(=O)Cn2ncc3c(C)n(Cc4cccc(Cl)c4)c(C)c3c2=O)cc1	inactive: -4.96%
CC(C)c1ccc(NC(=O)CSc2ncnc3c2sc2ccccc23)cc1	inactive: -2.06%
Clc1cccc(CSc2nc(NCCc3ccccc3)c3ccccc3n2)c1	inactive: -17.2%
COc1ccccc1CNCc1ccc(C(=O)O)s1	inactive: -0.29%
COc1cc2c(cc1NC(=O)COc1ccc(Br)c(C)c1)oc1ccccc12	inactive: -2.05%

Compound	activity change, negative = cytotoxicity
CCC12CN3CC(CC)(CN(C1)C3c1cccc(OC)c1O)C2=O (stereo not drawn)	inactive: -3.27%
COc1ccc(-c2nc3ccccc3s2)cc1NC(=O)c1ccc(C#N)cc1F	inactive: 7.33%
CCn1c(C(=O)NCc2ccc(C)cc2)cc2sc(Cl)cc21	inactive: 26.9%
COc1ccc(-c2c(C)c3ccc(O)c(CN4CCCCC4)c3oc2=O)cc1OC	inactive: 1.27%
Cc1ccc2nc(N(Cc3cccnc3)C(=O)c3ccco3)sc2c1	inactive: 3.59%
Cc1cccc(N2CCN(C(=O)c3cn(C)c4ccc(S(=O)(=O)N(C)C)cc4c3=O)CC2C)c1 (stereo not drawn)	inactive: 9.32%
CCc1ccc(-n2c(SCc3nc(-c4cc(OC)ccc4OC)no3)nnc2-c2ccccc2)cc1	inactive: -6.49%
COc1ccc(C2=CC(c3ccccc3Cl)n3nc(-c4ccc(C)cc4)nc3N2)cc1 (stereo not drawn)	inactive: -12.6%
CCOC(=O)c1c(NC(=O)CCCOc2ccc(C)cc2)sc2c1CCC(C)C2 (stereo not drawn)	inactive: 3.73%
CCc1nnc(SCC(=O)Nc2ccc(Cl)cc2F)c2cc3occc3n12	inactive: 1.68%
CCc1ccc(CNC(=O)c2ccc(CS(=O)c3ccc(Br)cc3)o2)cc1 (stereo not drawn)	inactive: -9.36%
CCOC(=O)Cn1c(=O)n(-c2ccccc2OC)c2nc(-c3ccccc3)nc(C(N)=O)c21	inactive: -2.86%
Cn1c2c(c(=O)n(C)c1=O)C(c1cccc(O)c1)CC(=O)N2 (stereo not drawn)	inactive: 24.7%
COc1cccc(NS(=O)(=O)c2ccc3[nH]c4c(c3c2)CCCCCC4)c1	inactive: -7.38%
COc1ccc(NC(=O)C(NC(=O)Cc2cccs2)c2ccc(OC)cc2)cc1 (stereo not drawn)	inactive: 11.4%
CCc1ccc(CN(C(=O)c2ccc(OC)cc2)C2CCS(=O)(=O)C2)cc1 (stereo not drawn)	inactive: -11.8%
COc1ccc(-c2onc(C)c2C)cc1S(=O)(=O)N1CCc2ccccc21	inactive: -29%
CC1CCN(C(=O)CCS(=O)(=O)c2cc3c(cc2Cl)NC(=O)CO3)CC1	inactive: 13.1%
CCOC(=O)c1nnn(CC(=O)NC(=O)Nc2ccccc2F)c1C(=O)OCC	inactive: -3.12%
CCCCSc1nnc2[nH]c(=O)cc(C)n12	inactive: -8.69%
O=C(c1cc(-c2ccc(Br)cc2)n[nH]1)N1CCN(S(=O)(=O)c2ccc(Br)s2)CC1	inactive: -12.1%
